Laboratory results reported in the supplement of paper PMC3334620.
The full ranking holds about 33,000 sequences; the median of “E-score (-0.5 to 0.5)” is about -0.012, and the highest 2% start at about 0.29. This is one part of the list.

What follows are sequences tested against T1, Ybr033w (UniProt P38073) (assay: PBM E-score (8-mer binding enrichment) (E-score (-0.5 to 0.5)); higher = stronger / more preferred TF binding; most listed sequences are background and not binding sites). Details: protein concentration: 200 nM; construct: GST-full length.
T1 sequence: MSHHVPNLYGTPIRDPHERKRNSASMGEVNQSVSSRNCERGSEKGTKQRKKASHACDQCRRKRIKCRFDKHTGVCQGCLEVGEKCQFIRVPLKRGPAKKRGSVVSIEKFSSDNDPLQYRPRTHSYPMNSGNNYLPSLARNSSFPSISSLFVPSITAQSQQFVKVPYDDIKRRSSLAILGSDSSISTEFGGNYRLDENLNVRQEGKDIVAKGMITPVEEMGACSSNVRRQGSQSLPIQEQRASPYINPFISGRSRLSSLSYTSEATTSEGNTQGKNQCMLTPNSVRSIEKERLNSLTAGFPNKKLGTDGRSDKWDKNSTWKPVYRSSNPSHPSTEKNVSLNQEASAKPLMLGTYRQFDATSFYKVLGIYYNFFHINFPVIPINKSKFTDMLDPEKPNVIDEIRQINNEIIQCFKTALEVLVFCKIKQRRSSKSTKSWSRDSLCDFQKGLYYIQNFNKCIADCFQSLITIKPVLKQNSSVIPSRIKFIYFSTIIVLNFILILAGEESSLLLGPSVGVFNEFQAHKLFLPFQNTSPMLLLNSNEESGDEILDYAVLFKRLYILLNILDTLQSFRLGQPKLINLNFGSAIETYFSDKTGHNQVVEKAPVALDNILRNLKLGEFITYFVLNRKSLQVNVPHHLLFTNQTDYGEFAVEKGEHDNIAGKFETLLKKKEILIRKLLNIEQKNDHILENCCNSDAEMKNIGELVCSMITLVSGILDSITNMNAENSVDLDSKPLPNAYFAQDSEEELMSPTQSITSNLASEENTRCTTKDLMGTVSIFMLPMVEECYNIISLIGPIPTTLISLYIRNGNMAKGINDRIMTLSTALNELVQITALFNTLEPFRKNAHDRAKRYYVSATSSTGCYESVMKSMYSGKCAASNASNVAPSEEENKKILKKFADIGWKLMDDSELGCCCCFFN
Description: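 Universal 'all 10-mer' protein binding microarrays (Agilent AMADID 015681) probed with GST-tagged S. cerevisiae TFs (full-length or DBD) made by in vitro transcription/translation (PURExpress), about 100-200 nM. Bound TF was detected with fluorescent anti-GST. Each ungapped 8-mer (which stands for itself and its reverse complement) is scored by the PBM enrichment score (E-score), a modified Wilcoxon-Mann-Whitney statistic from -0.5 to +0.5, computed with the Universal PBM Analysis Suite. Scale: above 0.35 generally sequence-specific binding.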

Question: ACTCGTAG was tested. Which “PBM E-score” value did it give?
Answer: -0.0252

Question: For AGACCGCG, which “PBM E-score” value is on record?
Answer: -0.147

Question: Which “PBM E-score” value does the source give for ACAATTAC here?
Answer: 0.202

Question: With TCTAAGAA as the sequence, how does the “PBM E-score” value read?
Answer: 0.282

Question: For ATACTTGA, which “PBM E-score” value is on record?
Answer: -0.0558

Question: AGAGATAG was tested. Which “PBM E-score” value did it give?
Answer: 0.174

Question: For GCCGGGCA, which “PBM E-score” value is on record?
Answer: -0.289

Question: AAGGTACG was tested. Which “PBM E-score” value did it give?
Answer: 0.0929

Question: For ACTTTGGG, which “PBM E-score” value is on record?
Answer: -0.0137

Question: Which “PBM E-score” value does the source give for GTGAATGA here?
Answer: 0.00677

Question: How did the “PBM E-score” value turn out when CAGACTGC was run?
Answer: -0.14

Question: How did the “PBM E-score” value turn out when AGAGCCTG was run?
Answer: -0.0892

Question: For GCAATGCA, which “PBM E-score” value is on record?
Answer: -0.0811

Question: How did the “PBM E-score” value turn out when ACTGGTTG was run?
Answer: 0.148

Question: Which “PBM E-score” value does the source give for ATCAACGG here?
Answer: 0.152

Question: Which “PBM E-score” value does the source give for AGCCGATC here?
Answer: 0.0222

Question: With CAGATACC as the sequence, how does the “PBM E-score” value read?
Answer: 0.0326

Question: For CCTATCAG, which “PBM E-score” value is on record?
Answer: -0.0603

Question: How did the “PBM E-score” value turn out when GAAAATGC was run?
Answer: 0.104

Question: How did the “PBM E-score” value turn out when AGTCAGAC was run?
Answer: -0.189

Question: Which “PBM E-score” value does the source give for CCACCTGG here?
Answer: -0.179

Question: With ATTTGTGC as the sequence, how does the “PBM E-score” value read?
Answer: 0.205

Question: CGTGGTAA was tested. Which “PBM E-score” value did it give?
Answer: 0.0588

Question: ATGTTTCG was tested. Which “PBM E-score” value did it give?
Answer: 0.0812

Question: CCCTTGAA was tested. Which “PBM E-score” value did it give?
Answer: -0.119

Question: Which “PBM E-score” value does the source give for ATCCACCG here?
Answer: 0.129

Question: Which “PBM E-score” value does the source give for TAAGGAGA here?
Answer: -0.0603

Question: With ACCGCTAT as the sequence, how does the “PBM E-score” value read?
Answer: -0.0406

Question: For CGATATGC, which “PBM E-score” value is on record?
Answer: 0.0496

Question: With GGTTCTAA as the sequence, how does the “PBM E-score” value read?
Answer: 0.0421

Question: How did the “PBM E-score” value turn out when CATTACAC was run?
Answer: 0.0933

Question: How did the “PBM E-score” value turn out when CCTCTTTC was run?
Answer: 0.0703

Question: Which “PBM E-score” value does the source give for GCGTGAGC here?
Answer: -0.00285

Question: For CAGTTTGG, which “PBM E-score” value is on record?
Answer: -0.0394

Question: With GTCCACCA as the sequence, how does the “PBM E-score” value read?
Answer: -0.114

Question: Which “PBM E-score” value does the source give for AGTAGTCC here?
Answer: 0.0545

Question: For ACCACGAT, which “PBM E-score” value is on record?
Answer: 0.0967

Question: For GCTCGTGA, which “PBM E-score” value is on record?
Answer: -0.142

Question: AATTCTTC was tested. Which “PBM E-score” value did it give?
Answer: 0.267

Question: Which “PBM E-score” value does the source give for CTCTAGTA here?
Answer: 0.0585

Question: CTCTAACA was tested. Which “PBM E-score” value did it give?
Answer: 0.143

Question: With CTGAAGGA as the sequence, how does the “PBM E-score” value read?
Answer: -0.0695

Question: How did the “PBM E-score” value turn out when CATTCTGG was run?
Answer: -0.15

Question: With AAGTGGCG as the sequence, how does the “PBM E-score” value read?
Answer: 0.213

Question: For AATGAATG, which “PBM E-score” value is on record?
Answer: 0.206

Question: How did the “PBM E-score” value turn out when CTTAGAAC was run?
Answer: 0.132

Question: CATTAGAG was tested. Which “PBM E-score” value did it give?
Answer: 0.0843

Question: For CCTCGGTC, which “PBM E-score” value is on record?
Answer: -0.27

Question: Which “PBM E-score” value does the source give for CTAAAACA here?
Answer: 0.148

Question: For AGACTCAA, which “PBM E-score” value is on record?
Answer: -0.0595

Question: With ATGTCGAA as the sequence, how does the “PBM E-score” value read?
Answer: 0.146

Question: How did the “PBM E-score” value turn out when ACCCACCA was run?
Answer: -0.0619

Question: How did the “PBM E-score” value turn out when CATCCGGA was run?
Answer: 0.124

Question: TACACTCA was tested. Which “PBM E-score” value did it give?
Answer: 0.133

Question: With GGGGCGGA as the sequence, how does the “PBM E-score” value read?
Answer: -0.149

Question: Which “PBM E-score” value does the source give for ACGTTTAC here?
Answer: -0.0641

Question: Which “PBM E-score” value does the source give for ATTCCCGA here?
Answer: 0.125

Question: With AATTAAAA as the sequence, how does the “PBM E-score” value read?
Answer: 0.112

Question: How did the “PBM E-score” value turn out when CATACACA was run?
Answer: -0.00125

Question: For TGTTTTAA, which “PBM E-score” value is on record?
Answer: 0.212

Question: With CGAATGGA as the sequence, how does the “PBM E-score” value read?
Answer: -0.0495

Question: CACATGGC was tested. Which “PBM E-score” value did it give?
Answer: -0.012

Question: How did the “PBM E-score” value turn out when GATTAAAA was run?
Answer: 0.311

Question: With AGAAGACC as the sequence, how does the “PBM E-score” value read?
Answer: 0.0144

Question: With CGTAACTC as the sequence, how does the “PBM E-score” value read?
Answer: -0.114

Question: Which “PBM E-score” value does the source give for AGGTTCAT here?
Answer: -0.0199

Question: Which “PBM E-score” value does the source give for CCGCGTGC here?
Answer: -0.231

Question: How did the “PBM E-score” value turn out when CATACCAC was run?
Answer: -0.0161

Question: AGTCGCGA was tested. Which “PBM E-score” value did it give?
Answer: 0.123

Question: How did the “PBM E-score” value turn out when TAGTGTGA was run?
Answer: 0.117

Question: For AGCTATCC, which “PBM E-score” value is on record?
Answer: -0.212

Question: How did the “PBM E-score” value turn out when CTACACGC was run?
Answer: -0.172

Question: Which “PBM E-score” value does the source give for CTGTACTA here?
Answer: 0.131

Question: Which “PBM E-score” value does the source give for ACAAATGG here?
Answer: 0.221

Question: AAGTTACA was tested. Which “PBM E-score” value did it give?
Answer: 0.258

Question: GTACACTA was tested. Which “PBM E-score” value did it give?
Answer: 0.0249

Question: For TCCATAGA, which “PBM E-score” value is on record?
Answer: -0.0343

Question: CCTGCCGA was tested. Which “PBM E-score” value did it give?
Answer: -0.0359

Question: For CTATGGCC, which “PBM E-score” value is on record?
Answer: -0.0512

Question: Which “PBM E-score” value does the source give for CCCGAGGC here?
Answer: -0.329

Question: Which “PBM E-score” value does the source give for ACGGGTTA here?
Answer: -0.268

Question: With CCAACTCG as the sequence, how does the “PBM E-score” value read?
Answer: -0.0101

Question: ATGCCAAG was tested. Which “PBM E-score” value did it give?
Answer: 0.0709

Question: Which “PBM E-score” value does the source give for AGCACGGA here?
Answer: -0.121

Question: With CCCTGGAA as the sequence, how does the “PBM E-score” value read?
Answer: -0.157

Question: How did the “PBM E-score” value turn out when CGTTGTCC was run?
Answer: 0.0254

Question: For ACGTATCC, which “PBM E-score” value is on record?
Answer: -0.257

Question: TGGATAAA was tested. Which “PBM E-score” value did it give?
Answer: 0.391

Question: ACACACCC was tested. Which “PBM E-score” value did it give?
Answer: 0.0734

Question: CCCGGGAC was tested. Which “PBM E-score” value did it give?
Answer: -0.322

Question: Which “PBM E-score” value does the source give for CTTGTGTC here?
Answer: 0.0496

Question: With TCACAAAA as the sequence, how does the “PBM E-score” value read?
Answer: 0.233

Question: Which “PBM E-score” value does the source give for CGGACCGA here?
Answer: -0.176

Question: With CCTTAAAC as the sequence, how does the “PBM E-score” value read?
Answer: -0.05
